{"source": "PubChem BioAssay AID1832", "about": "(Broad Institute, 2009)", "note": "About 1,100 (0.37%) of roughly 300,000 compounds were called active. Inconclusive means that the source gave no clear call. Such entries were picked first, then a sample of the others.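 How the source made its calls: active means inhibition past about -25% in most replicates, and total fluorescence under double the plate's negative control median (limit read from the data); inconclusive means replicates evenly split on the limit, or fluorescence at least double controls; inactive means too little inhibition in most replicates.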"}
{"target": "Zinc finger protein mex-5 (Caenorhabditis elegans) (UniProt Q9XUB2)", "sequence (Q9XUB2 whole entry, looked up)": "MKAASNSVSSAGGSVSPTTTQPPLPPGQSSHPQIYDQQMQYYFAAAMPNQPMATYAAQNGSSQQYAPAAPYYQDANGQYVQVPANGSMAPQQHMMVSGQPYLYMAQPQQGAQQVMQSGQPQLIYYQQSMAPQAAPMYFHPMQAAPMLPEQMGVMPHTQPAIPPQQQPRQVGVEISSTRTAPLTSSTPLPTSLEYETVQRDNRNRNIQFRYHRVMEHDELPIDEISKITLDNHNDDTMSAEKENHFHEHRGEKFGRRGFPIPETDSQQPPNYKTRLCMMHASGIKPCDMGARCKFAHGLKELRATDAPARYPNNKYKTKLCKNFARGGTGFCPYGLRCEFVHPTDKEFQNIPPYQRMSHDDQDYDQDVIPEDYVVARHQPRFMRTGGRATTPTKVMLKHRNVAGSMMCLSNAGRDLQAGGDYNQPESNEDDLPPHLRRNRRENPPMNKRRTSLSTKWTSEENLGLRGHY", "assay": "MEX-5 zinc finger RNA-binding disruptors – biochemical, C. elegans, fluorescence polarization, MLPCN library, primary screen (AID 1832);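 further: 0% = DMSO and -100% = 5 µM competing unlabeled TCR2 RNA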", "details": "MEX-5/FITC-TCR2 RNA binding, at 10 µM, hits give low values"}
{"compound": "CCOC(=O)c1c(N)sc(=S)c2c1CCC2", "activity score (negative = inhibition of binding)": "inactive: -8.71%"}
{"compound": "O=C(C1CCCN(c2ncnc3c2nc2n3CCCCC2)C1)N1CCN(c2ccc(Cl)cc2)CC1", "note": "(stereo unspecified)", "activity score (negative = inhibition of binding)": "inactive: 0.874%"}
{"compound": "Cc1ccc(N=Nc2c(O)ccc3n[nH]nc23)cc1", "activity score (negative = inhibition of binding)": "inconclusive: -16.6%"}
{"compound": "CCCCC1=CC2=CC(=O)C(C)(OC(=O)c3cnc4ccccc4n3)C(=O)C2=CO1", "note": "(stereo unspecified)", "activity score (negative = inhibition of binding)": "inconclusive: -12.6%"}
{"compound": "COc1cc2c3nnc(-c4ccc(F)cc4)c-3cn(Cc3cccc(C)c3)c2cc1OC", "activity score (negative = inhibition of binding)": "inconclusive: -82.5% [fluorescent]"}
{"compound": "CN=C1S/C(=C\\c2ccc(O)c(OC)c2)C(=O)N1C", "activity score (negative = inhibition of binding)": "inconclusive: -22.1%"}
{"compound": "Cc1ccc(C)c(NC(=S)N2CCC(NC(=O)c3ccccc3)CC2)c1", "activity score (negative = inhibition of binding)": "inactive: -0.735%"}
{"compound": "O=C(O)c1ccc2c3c(ncnc13)-c1ccccc1C2=O", "activity score (negative = inhibition of binding)": "inconclusive: -24.7%"}
{"compound": "Cc1ccc(S(=O)(=O)N(C(=O)c2ccco2)c2cc3sc(=O)oc3c3ccccc23)cc1", "activity score (negative = inhibition of binding)": "inactive: -3.52%"}
{"compound": "C#CCOCCOCCOCCNc1nc(N2CCN(C(=O)[C@H](Cc3ccc(O)cc3)n3cc([C@@H](N)CC(C)C)nn3)CC2)nc(N2CCN(C(=O)[C@H](Cc3cc4ccccc4[nH]3)n3cc([C@@H](N)CC(C)C)nn3)CC2)n1", "activity score (negative = inhibition of binding)": "inactive: 8.05%"}
{"compound": "CN1C2CCC1/C(=C/c1cccn1C)C(=O)/C2=C\\c1cccn1C", "activity score (negative = inhibition of binding)": "inconclusive: 84.4% [fluorescent]"}
{"compound": "Cc1ccc(OCCn2cc(/C=N/NC(=O)c3ccncc3)c3ccccc32)cc1", "activity score (negative = inhibition of binding)": "inactive: 0.216%"}
{"compound": "S=C(NCc1ccncc1)Nc1ccc(Br)cc1Cl", "activity score (negative = inhibition of binding)": "inactive: 1.58%"}
{"compound": "COc1ccc2[nH]cc(/C=C/c3cc[n+](C)cc3)c2c1", "activity score (negative = inhibition of binding)": "inconclusive: 58.7% [fluorescent]"}
{"compound": "CNC(=O)c1c(NC(=O)c2ccc(S(=O)(=O)N3CCCc4ccccc43)cc2)sc2c1CCN(C)C2", "activity score (negative = inhibition of binding)": "inconclusive: -22.3%"}
{"compound": "Cc1ccc(/C=C2/NC(=O)N(Cc3ccccc3F)C2=O)s1", "activity score (negative = inhibition of binding)": "inconclusive: -11.8%"}
{"compound": "O=C(Cc1ccc(Cl)cc1)Nc1cc(S(=O)(=O)N2CCOCC2)ccc1N1CCCC1", "activity score (negative = inhibition of binding)": "inactive: 2.1%"}
{"compound": "CC(C)(C)NC(=S)NCCc1ccccc1", "activity score (negative = inhibition of binding)": "inconclusive: -16.2%"}
{"compound": "CCOC(=O)c1cc2n(c1/N=C/N(C)C)-c1ccccc1C2=O", "activity score (negative = inhibition of binding)": "inconclusive: -106% [fluorescent]"}
{"compound": "COc1ccc(N=Nc2nc3ccc(Br)cc3n2C)cc1", "activity score (negative = inhibition of binding)": "active: -50.4%"}
{"compound": "C#CCn1c(=NC(=O)c2ccc(S(=O)(=O)N3CCCc4ccccc43)cc2)sc2cc(S(N)(=O)=O)ccc21", "activity score (negative = inhibition of binding)": "inactive: -0.295%"}
{"compound": "COc1ccc(C(=O)NC2(C(F)(F)F)C(=O)N(Cc3ccco3)C3=C2C(=O)CC(C)(C)C3)cc1OC", "note": "(stereo unspecified)", "activity score (negative = inhibition of binding)": "inconclusive: -21.6%"}
{"compound": "Cc1cc(C)cc(NCc2cc(=O)oc3cc(-c4ccccc4)c(O)cc23)c1", "activity score (negative = inhibition of binding)": "inactive: 0.59%"}
{"compound": "CC(=O)N1C(=O)C(=C2C=C(C)OC(C)=C2)c2ccccc21", "activity score (negative = inhibition of binding)": "inconclusive: 31.3% [fluorescent]"}
{"compound": "CCC(c1nnc(SCC(=O)Nc2ccc(C(C)=O)cc2)n1C1CCCCC1)N(C)C", "note": "(stereo unspecified)", "activity score (negative = inhibition of binding)": "inactive: 2.36%"}
{"compound": "COc1ccc(NC(=O)c2cccs2)cc1", "activity score (negative = inhibition of binding)": "inactive: -4.01%"}
{"compound": "Oc1ccc(-c2cn3c(n2)SCC3)cc1O", "activity score (negative = inhibition of binding)": "active: -39.8%"}
{"compound": "O=C(N/N=C/c1ccc([N+](=O)[O-])s1)c1ccccc1", "activity score (negative = inhibition of binding)": "inactive: -4.48%"}
{"compound": "CCOC(=O)c1c(C)[nH]c(O)c1C=Nc1ccc(C(F)(F)F)cc1", "activity score (negative = inhibition of binding)": "inactive: -2.69%"}
{"compound": "CC(=O)[C@]1(O)Cc2c(O)c3c(c(O)c2[C@@H](O[C@H]2C[C@H](N)[C@H](O)[C@H](C)O2)C1)C(=O)c1ccccc1C3=O", "activity score (negative = inhibition of binding)": "inconclusive: -126% [fluorescent]"}
{"compound": "O=C(N/N=C\\c1c(O)ccc2ccccc12)c1cncc(Br)c1", "activity score (negative = inhibition of binding)": "inconclusive: -17.6%"}
{"compound": "CC(=O)Nc1ccc(N/C=C/C(=O)c2ccc(C)o2)cc1", "activity score (negative = inhibition of binding)": "inconclusive: -22.8%"}
{"compound": "Cc1ccc(C(=O)N/C(=C\\c2ccc(-c3ccc([N+](=O)[O-])cc3)o2)C(=O)NC2CCS(=O)(=O)C2)cc1", "note": "(stereo unspecified)", "activity score (negative = inhibition of binding)": "inconclusive: -23.9%"}
{"compound": "COc1cccc(N=Nc2c(=O)[nH]n3c(=O)cc(C)[nH]c23)c1", "activity score (negative = inhibition of binding)": "active: -32.4%"}
{"compound": "CC(C)OC(=O)c1nn2c(C(F)(F)F)cc(-c3ccc(Br)o3)nc2c1Br", "activity score (negative = inhibition of binding)": "inconclusive: -16.8%"}
{"compound": "S=C1NC2(CCS1)Oc1ccccc1C1CC(c3ccccc3)=NN12", "note": "(stereo unspecified)", "activity score (negative = inhibition of binding)": "inconclusive: -23.1%"}
{"compound": "CCOC(=O)c1ccc(N2C(=O)c3n[nH]c(C)c3C2c2ccc(OC)cc2)cc1", "note": "(stereo unspecified)", "activity score (negative = inhibition of binding)": "inactive: -0.328%"}
{"compound": "COC(=O)c1ccccc1NCc1cc(=O)oc2cc(O)c(O)cc12", "activity score (negative = inhibition of binding)": "active: -28.1%"}
{"compound": "CCOc1ccc(/C=C2\\CCCc3c2nc2ccccc2c3C(=O)O)cc1OC", "activity score (negative = inhibition of binding)": "inconclusive: -141% [fluorescent]"}
{"compound": "N#CCSc1nc2cc(C(=O)N3CCC(C(N)=O)CC3)ccc2c2nc3ccccc3n12", "activity score (negative = inhibition of binding)": "inactive: -2.87%"}
{"compound": "O=C1c2ccccc2-c2onc3ccc(N4CCCC4)c1c23", "activity score (negative = inhibition of binding)": "inconclusive: -60.3% [fluorescent]"}
{"compound": "O=C(Cn1cnc2ccccc21)N/N=C/c1cccs1", "activity score (negative = inhibition of binding)": "inactive: 0.54%"}
{"compound": "O=C(c1cccs1)c1ccc(-c2cccs2)s1", "activity score (negative = inhibition of binding)": "inconclusive: -14.7%"}
{"compound": "Cc1ccc(N2C(=O)c3cccc4c(N5CCN(C)CC5)ccc(c34)C2=O)c2cccnc12", "activity score (negative = inhibition of binding)": "active: -58.3%"}
{"compound": "COCCN(CCOC)Cc1c(O)ccc2c1O/C(=C\\c1ccc(C)o1)C2=O", "activity score (negative = inhibition of binding)": "inconclusive: -12.6% [fluorescent]"}
{"compound": "CN(C)C1=NC(=O)/C(=C/c2ccc(-c3ccc(S(N)(=O)=O)cc3)o2)S1", "activity score (negative = inhibition of binding)": "active: -28.6%"}
{"compound": "COc1ccc(CCNC(=O)c2cc(-c3ccncc3)nc3ccc(S(=O)(=O)N4CCOCC4)cc23)cc1OC", "activity score (negative = inhibition of binding)": "inactive: 1.61%"}
{"compound": "C(#Cc1ccc2c(c1)COc1c3ccccc3nn1-2)c1ccccc1", "activity score (negative = inhibition of binding)": "inconclusive: 30.8%"}
{"compound": "CN(C)/C=c1\\sc2c(C#N)cc(C(=O)c3ccc(Br)cc3)n2c1=O", "activity score (negative = inhibition of binding)": "inconclusive: -11.9% [fluorescent]"}
{"compound": "CN1CCS/C1=C\\C=C1/SC(=S)N(CC(=O)O)C1=O", "activity score (negative = inhibition of binding)": "inconclusive: 98.5% [fluorescent]"}
{"compound": "CCN(CC)c1ccc2c(c1)OC(N)=C(C#N)C2c1cccnc1", "note": "(stereo unspecified)", "activity score (negative = inhibition of binding)": "inconclusive: -8.64% [fluorescent]"}
